{
  "source": "paper PMC9911399",
  "about": "“Two distinct binding modes provide the RNA-binding protein RbFox with extraordinary sequence specificity”",
  "binders": {"B1": {"name": "AAGGCGU (DNA:RNA)", "RNA": "GGGAGACCGGAAUUCAGAUUGUCCAAGGCGUUUAAAUCCCGUCGUAGCCACCA", "DNA 1": "CAATCTGAATTCCGGTCTCCC", "DNA 2": "TGGTGGCTACGACGGGATT"}, "B2": {"name": "CACAGUC (DNA:RNA)", "RNA": "B1 RNA with A25C, G27C, G28A, C29G, G30U, U31C", "DNA 1": "CAATCTGAATTCCGGTCTCCC", "DNA 2": "TGGTGGCTACGACGGGATT"}, "B3": {"name": "CUUGCGU (DNA:RNA)", "RNA": "B1 RNA with A25C, A26U, G27U", "DNA 1": "CAATCTGAATTCCGGTCTCCC", "DNA 2": "TGGTGGCTACGACGGGATT"}, "B4": {"name": "CUAUUAG (DNA:RNA)", "RNA": "GGGAGACCGGAAUUCAGAUUGUCCCUAUUAGUUAAAUCCCGUCGUAGCCACCA", "DNA 1": "CAATCTGAATTCCGGTCTCCC", "DNA 2": "TGGTGGCTACGACGGGATT"}, "B5": {"name": "AGAGUUA (DNA:RNA)", "RNA": "B1 RNA with A26G, G27A, C29U, G30U, U31A", "DNA 1": "CAATCTGAATTCCGGTCTCCC", "DNA 2": "TGGTGGCTACGACGGGATT"}, "B6": {"name": "UAAGAUU (DNA:RNA)", "RNA": "B1 RNA with A25U, G27A, C29A, G30U", "DNA 1": "CAATCTGAATTCCGGTCTCCC", "DNA 2": "TGGTGGCTACGACGGGATT"}, "B7": {"name": "AUACAUC (DNA:RNA)", "RNA": "B4 RNA with C25A, U28C, U29A, A30U, G31C", "DNA 1": "CAATCTGAATTCCGGTCTCCC", "DNA 2": "TGGTGGCTACGACGGGATT"}, "B8": {"name": "UGAACUG (DNA:RNA)", "RNA": "B4 RNA with C25U, U26G, U28A, U29C, A30U", "DNA 1": "CAATCTGAATTCCGGTCTCCC", "DNA 2": "TGGTGGCTACGACGGGATT"}, "B9": {"name": "CUUUUCG (DNA:RNA)", "RNA": "B4 RNA with A27U, A30C", "DNA 1": "CAATCTGAATTCCGGTCTCCC", "DNA 2": "TGGTGGCTACGACGGGATT"}, "B10": {"name": "GCUCACU (DNA:RNA)", "RNA": "B1 RNA with A25G, A26C, G27U, G28C, C29A, G30C", "DNA 1": "CAATCTGAATTCCGGTCTCCC", "DNA 2": "TGGTGGCTACGACGGGATT"}, "B11": {"name": "GGCCUUG (DNA:RNA)", "RNA": "B4 RNA with C25G, U26G, A27C, U28C, A30U", "DNA 1": "CAATCTGAATTCCGGTCTCCC", "DNA 2": "TGGTGGCTACGACGGGATT"}, "B12": {"name": "GCCUCGU (DNA:RNA)", "RNA": "B1 RNA with A25G, A26C, G27C, G28U", "DNA 1": "CAATCTGAATTCCGGTCTCCC", "DNA 2": "TGGTGGCTACGACGGGATT"}, "B13": {"name": "GUAGUGG (DNA:RNA)", "RNA": "B4 RNA with C25G, U28G, A30G", "DNA 1": "CAATCTGAATTCCGGTCTCCC", "DNA 2": "TGGTGGCTACGACGGGATT"}, "B14": {"name": "UAAUAGG (DNA:RNA)", "RNA": "B4 RNA with C25U, U26A, U29A, A30G", "DNA 1": "CAATCTGAATTCCGGTCTCCC", "DNA 2": "TGGTGGCTACGACGGGATT"}, "B15": {"name": "UAGCCUC (DNA:RNA)", "RNA": "B1 RNA with A25U, G28C, G30U, U31C", "DNA 1": "CAATCTGAATTCCGGTCTCCC", "DNA 2": "TGGTGGCTACGACGGGATT"}, "B16": {"name": "GAUAAAA (DNA:RNA)", "RNA": "B1 RNA with A25G, G27U, G28A, C29A, G30A, U31A", "DNA 1": "CAATCTGAATTCCGGTCTCCC", "DNA 2": "TGGTGGCTACGACGGGATT"}, "B17": {"name": "GACGCUG (DNA:RNA)", "RNA": "B1 RNA with A25G, G27C, G30U, U31G", "DNA 1": "CAATCTGAATTCCGGTCTCCC", "DNA 2": "TGGTGGCTACGACGGGATT"}, "B18": {"name": "ACAUCCC (DNA:RNA)", "RNA": "B1 RNA with A26C, G27A, G28U, G30C, U31C", "DNA 1": "CAATCTGAATTCCGGTCTCCC", "DNA 2": "TGGTGGCTACGACGGGATT"}, "B19": {"name": "CAAACCG (DNA:RNA)", "RNA": "B4 RNA with U26A, U28A, U29C, A30C", "DNA 1": "CAATCTGAATTCCGGTCTCCC", "DNA 2": "TGGTGGCTACGACGGGATT"}, "B20": {"name": "UUCAUGA (DNA:RNA)", "RNA": "B4 RNA with C25U, A27C, U28A, A30G, G31A", "DNA 1": "CAATCTGAATTCCGGTCTCCC", "DNA 2": "TGGTGGCTACGACGGGATT"}, "B21": {"name": "CUUGACU (DNA:RNA)", "RNA": "B1 RNA with A25C, A26U, G27U, C29A, G30C", "DNA 1": "CAATCTGAATTCCGGTCTCCC", "DNA 2": "TGGTGGCTACGACGGGATT"}, "B22": {"name": "AGAAGGG (DNA:RNA)", "RNA": "B1 RNA with A26G, G27A, G28A, C29G, U31G", "DNA 1": "CAATCTGAATTCCGGTCTCCC", "DNA 2": "TGGTGGCTACGACGGGATT"}, "B23": {"name": "AGCCGCG (DNA:RNA)", "RNA": "B1 RNA with A26G, G27C, G28C, C29G, G30C, U31G", "DNA 1": "CAATCTGAATTCCGGTCTCCC", "DNA 2": "TGGTGGCTACGACGGGATT"}, "B24": {"name": "CUAUAAA (DNA:RNA)", "RNA": "B4 RNA with U29A, G31A", "DNA 1": "CAATCTGAATTCCGGTCTCCC", "DNA 2": "TGGTGGCTACGACGGGATT"}, "B25": {"name": "AAUCGGG (DNA:RNA)", "RNA": "B1 RNA with G27U, G28C, C29G, U31G", "DNA 1": "CAATCTGAATTCCGGTCTCCC", "DNA 2": "TGGTGGCTACGACGGGATT"}, "B26": {"name": "GUCUAUU (DNA:RNA)", "RNA": "B4 RNA with C25G, A27C, U29A, A30U, G31U", "DNA 1": "CAATCTGAATTCCGGTCTCCC", "DNA 2": "TGGTGGCTACGACGGGATT"}, "B27": {"name": "CCUUUUC (DNA:RNA)", "RNA": "B4 RNA with U26C, A27U, A30U, G31C", "DNA 1": "CAATCTGAATTCCGGTCTCCC", "DNA 2": "TGGTGGCTACGACGGGATT"}, "B28": {"name": "CGGGCAC (DNA:RNA)", "RNA": "B1 RNA with A25C, A26G, G30A, U31C", "DNA 1": "CAATCTGAATTCCGGTCTCCC", "DNA 2": "TGGTGGCTACGACGGGATT"}, "B29": {"name": "UUGACCC (DNA:RNA)", "RNA": "B1 RNA with A25U, A26U, G28A, G30C, U31C", "DNA 1": "CAATCTGAATTCCGGTCTCCC", "DNA 2": "TGGTGGCTACGACGGGATT"}, "B30": {"name": "GGAAUGC (DNA:RNA)", "RNA": "B4 RNA with C25G, U26G, U28A, A30G, G31C", "DNA 1": "CAATCTGAATTCCGGTCTCCC", "DNA 2": "TGGTGGCTACGACGGGATT"}, "B31": {"name": "GGAGUUG (DNA:RNA)", "RNA": "B4 RNA with C25G, U26G, U28G, A30U", "DNA 1": "CAATCTGAATTCCGGTCTCCC", "DNA 2": "TGGTGGCTACGACGGGATT"}},
  "note": "Substitutions are numbered along the chain they refer to; changes in the protein carry UniProt numbers. Some of the results follow.",
  "data": [
    {"target": "T1, RBFOX1 RRM (Homo sapiens, UniProt Q9NWB1 109-208)", "T1 sequence": "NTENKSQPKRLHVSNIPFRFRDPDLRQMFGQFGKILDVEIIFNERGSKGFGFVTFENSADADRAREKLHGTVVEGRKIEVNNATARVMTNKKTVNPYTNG", "assay": "EMSA; HiTS-Eq, 1 nM pool, 10 min; buffer printed only for the single-RNA assays: 10 mM Tris pH 7.5, 150 mM NaCl, 3.4 mM EDTA, 0.001% NP-40, 30 C", "details": "tags: His6 N-terminal (pET28a); label: 5' 32P", "method_in_brief": "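A pool of RNA with 7 randomized nucleotides, 5′-radiolabelled and with DNA-annealed flanks, was equilibrated at 1 nM for 10 min in 50 µL with purified RbFox RRM, wild type or mutant, across increasing protein concentrations. Free RNA was separated by 8% native PAGE, excised, reverse-transcribed, barcoded by PCR and sequenced. Relative association constants were obtained from read-count changes of each RNA species versus the control reaction and normalised to the cognate motif.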", "values": [
      {"binder": "B1", "binding signal": "0.00908 KA relative to UGCAUGU"},
      {"binder": "B2", "binding signal": "0.00442 KA relative to UGCAUGU"},
      {"binder": "B3", "binding signal": "0.0175 KA relative to UGCAUGU"},
      {"binder": "B4", "binding signal": "0.00862 KA relative to UGCAUGU"},
      {"binder": "B5", "binding signal": "0.00482 KA relative to UGCAUGU"},
      {"binder": "B6", "binding signal": "0.00913 KA relative to UGCAUGU"},
      {"binder": "B7", "binding signal": "0.000298 KA relative to UGCAUGU"},
      {"binder": "B8", "binding signal": "0.0205 KA relative to UGCAUGU"},
      {"binder": "B9", "binding signal": "0.016 KA relative to UGCAUGU"},
      {"binder": "B10", "binding signal": "0.00818 KA relative to UGCAUGU"},
      {"binder": "B11", "binding signal": "0.0328 KA relative to UGCAUGU"},
      {"binder": "B12", "binding signal": "0.0131 KA relative to UGCAUGU"},
      {"binder": "B13", "binding signal": "0.012 KA relative to UGCAUGU"},
      {"binder": "B14", "binding signal": "0.00386 KA relative to UGCAUGU"},
      {"binder": "B15", "binding signal": "0.00934 KA relative to UGCAUGU"},
      {"binder": "B16", "binding signal": "0.00401 KA relative to UGCAUGU"},
      {"binder": "B17", "binding signal": "0.0241 KA relative to UGCAUGU"},
      {"binder": "B18", "binding signal": "0.000249 KA relative to UGCAUGU"},
      {"binder": "B19", "binding signal": "8.34e-05 KA relative to UGCAUGU"},
      {"binder": "B20", "binding signal": "0.0117 KA relative to UGCAUGU"},
      {"binder": "B21", "binding signal": "0.0078 KA relative to UGCAUGU"},
      {"binder": "B22", "binding signal": "0.00618 KA relative to UGCAUGU"},
      {"binder": "B23", "binding signal": "0.00876 KA relative to UGCAUGU"},
      {"binder": "B24", "binding signal": "0.00444 KA relative to UGCAUGU"},
      {"binder": "B25", "binding signal": "0.00411 KA relative to UGCAUGU"},
      {"binder": "B26", "binding signal": "0.00628 KA relative to UGCAUGU"},
      {"binder": "B27", "binding signal": "0.00728 KA relative to UGCAUGU"},
      {"binder": "B28", "binding signal": "0.0231 KA relative to UGCAUGU"},
      {"binder": "B29", "binding signal": "0.00634 KA relative to UGCAUGU"},
      {"binder": "B30", "binding signal": "0.0946 KA relative to UGCAUGU"},
      {"binder": "B31", "binding signal": "0.0272 KA relative to UGCAUGU"}
    ]}
  ]
}
